{
  "source": "PubChem BioAssay AID1030",
  "about": "(National Center for Advancing Translational Sciences (NCATS), 2008)",
  "note": "“And” between values parts separate entries of the source, which are not always exact repeats. Equal entries are not always repeated. Hit rate of the full screen: of about 220,000 compounds, about 16,000 (7.3%) were called active. Inconclusive results, whose numbers are uncertain, are shown with a selection of clear calls. Calls come from the whole dose curve; as a rule, active = well fitted inhibition curve with a large enough effect (not every such curve was filed as active); inconclusive = small, poorly fitted or top-dose-only effect, or another doubt; inactive = no such curve, though single readings can be large or run the other way. Potencies of inconclusive entries are left out as doubtful fits. More than one record can exist for a structure, and the calls need not agree.",
  "data": [
    {"target": "Aldehyde dehydrogenase 1A1 (Homo sapiens) (UniProt P00352)", "sequence (P00352 whole entry, looked up)": "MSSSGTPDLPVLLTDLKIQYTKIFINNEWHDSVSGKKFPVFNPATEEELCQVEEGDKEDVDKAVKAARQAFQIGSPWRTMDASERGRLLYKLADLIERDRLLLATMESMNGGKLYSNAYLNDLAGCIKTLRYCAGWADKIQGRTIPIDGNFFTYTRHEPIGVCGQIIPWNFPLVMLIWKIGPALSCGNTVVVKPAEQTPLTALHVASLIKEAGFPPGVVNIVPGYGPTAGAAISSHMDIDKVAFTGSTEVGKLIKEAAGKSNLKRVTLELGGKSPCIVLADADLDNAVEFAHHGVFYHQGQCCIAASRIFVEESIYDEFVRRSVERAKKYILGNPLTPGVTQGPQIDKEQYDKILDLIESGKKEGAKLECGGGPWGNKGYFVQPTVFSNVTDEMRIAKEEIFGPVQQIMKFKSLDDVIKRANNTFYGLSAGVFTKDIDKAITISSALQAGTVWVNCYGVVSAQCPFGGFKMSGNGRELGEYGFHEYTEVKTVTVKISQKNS", "assay": "qHTS Assay for Inhibitors of Aldehyde Dehydrogenase 1 (ALDH1A1); note: potency is the fitted concentration of half-maximal effect; tags give direction and shape of the fitted curve;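 for activity, negative = inhibition: plate controls were no enzyme wells and a reference inhibitor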", "settings": "Purified ALDH1A1, NADH fluorescence, propionaldehyde substrate; series mostly up to 75.3 µM", "values": [
      {"compound": "CC(C(=O)N1CCN(c2ccc(Cl)cc2)CC1)c1ncc(C(F)(F)F)cc1Cl", "note": "(stereo not drawn)", "Potency": "inactive"},
      {"compound": "Cc1ccc(/C=C/c2nnc(-c3cccs3)o2)cc1", "Potency": "inconclusive [inhibitor, single point]"},
      {"compound": "Cc1cc(=O)oc2cc(OCCSCCN3CCCC3)ccc12", "Potency": "inconclusive [inhibitor, single point]"},
      {"compound": "S=C1NC2=C(CCCC2)C2(CCCCC2)N1", "Potency": "active: 0.316 µM"},
      {"compound": "N#Cc1c(-c2ccco2)cc(-c2ccccn2)nc1N", "Potency": "inconclusive [inhibitor, partial curve]"},
      {"compound": "Cc1ccc(S(=O)(=O)CC#CCOC(=O)c2ccc([N+](=O)[O-])cc2)cc1", "Potency": "active: 1.12 µM"},
      {"compound": "C[C@]12CCC(=O)C=C1CC[C@@H]1C2[C@@H](O)C[C@@]2(C)[C@H]1CC[C@]2(O)C(=O)CO", "note": "(stereo partly drawn)", "Potency": "inactive"},
      {"compound": "Cc1ccc(OCCn2cc(/C(N)=N/O)c3ccccc32)cc1C", "Potency": "inconclusive [inhibitor, single point]"},
      {"compound": "NC(=O)CSc1nnc(-c2ccc(S(=O)(=O)N3CCCC3)cc2)n1Cc1ccco1", "Potency": "inconclusive [inhibitor, partial curve]"},
      {"compound": "CC1(c2ccccn2)Nc2ccccc2-c2nc3ccccc3n21", "note": "(stereo not drawn)", "Potency": "inconclusive [inhibitor, partial curve]"},
      {"compound": "COc1c(Cl)cc(Cl)cc1CNc1ccc(S(N)(=O)=O)cc1", "Potency": "inactive"},
      {"compound": "O=C(c1ccco1)N1CCN(C(=O)c2ccc(COc3ccc(F)cc3)o2)CC1", "Potency": "active: 28.2 µM"},
      {"compound": "Cc1cc(/C=C2/SC(=S)N(c3ccc([N+](=O)[O-])cc3)C2=O)c(C)n1-c1cccnc1", "Potency": "active: 1.26 µM"},
      {"compound": "COc1ccc(S(=O)(=O)N2CCCN(S(=O)(=O)c3ccc(OC)c(C)c3)CC2)cc1C", "Potency": "inactive"},
      {"compound": "Cn1c(=O)c2c(nc(Cc3ccc(N)cc3)n2C)n(C)c1=O", "Potency": "inactive"},
      {"compound": "COc1cccc(Cn2c(=O)c(-c3cc(F)cc(F)c3)nc3cnc(N(C)C)nc32)c1", "Potency": "inconclusive [inhibitor, single point]"},
      {"compound": "O=c1cc(NCCc2ccccc2)c2ccccc2o1", "Potency": "inactive"},
      {"compound": "CC(OC(=O)C1=COCCO1)C(=O)Nc1cc(S(=O)(=O)N2CCCCC2)ccc1Cl", "note": "(stereo not drawn)", "Potency": "inactive"},
      {"compound": "COc1cccc(-c2cc(=O)c3cc(NC(=O)c4ccc(C)cc4)ccc3[nH]2)c1", "Potency": "inconclusive [inhibitor, full curve]"},
      {"compound": "CCCc1c(OCC(O)COc2ccc3c(=O)cc(C(=O)O)oc3c2CCC)ccc(C(C)=O)c1O", "note": "(stereo not drawn)", "Potency": "inactive"},
      {"compound": "O=C(CCc1nc(-c2ccccc2)c(-c2ccccc2)o1)OCc1ccc(Br)cc1", "Potency": "inconclusive [inhibitor, single point]"},
      {"compound": "CCOC(=O)N=S(N)(=O)c1ccccc1", "note": "(stereo not drawn)", "Potency": "inactive"},
      {"compound": "O=C(CSc1ncccn1)NCc1cccc(Cl)c1", "Potency": "inactive"},
      {"compound": "CCOC(=O)COc1ccc2ccccc2c1/C=C/[N+](=O)[O-]", "Potency": "active: 12.6 µM"},
      {"compound": "CC(C)Cc1nc2oc3c(N4CCN(CCO)CC4)ncnc3c2c2c1CCCC2", "Potency": "active: 7.94 µM"},
      {"compound": "CCCCNC(=S)N/N=C1\\C(=O)c2cccc3cccc1c23", "Potency": "active: 12.6 µM"},
      {"compound": "CCOC(=O)CNC(=O)c1sc2nc(C)cc(C)c2c1N", "Potency": "inconclusive [inhibitor, single point]"},
      {"compound": "CCOC(=O)N1N=C(c2ccc(OC)cc2)CC1(O)C(F)(F)F", "note": "(stereo not drawn)", "Potency": "inconclusive [inhibitor, single point]"},
      {"compound": "Cc1ccc(S(=O)(=O)c2ccc(Cl)cc2)cc1S(=O)(=O)N1CCN(C)CC1", "Potency": "inactive"},
      {"compound": "O=C(O)c1c(Br)c(Br)c(Br)c(Br)c1C1c2ccc(O)cc2Oc2cc(O)ccc21", "Potency": "inconclusive [inhibitor, partial curve, poor fit]"},
      {"compound": "O=C1CCCC2=C1C(c1ccncc1)c1c(nc(SCc3ccccc3)[nH]c1=O)N2", "note": "(stereo not drawn)", "Potency": "inconclusive [inhibitor, single point]"},
      {"compound": "CCc1ccc(NC(=O)CC2C(=O)Nc3c2c(=O)n(C)c(=O)n3C)cc1", "note": "(stereo not drawn)", "Potency": "active: 100 µM"},
      {"compound": "O=C(NN1CCOCC1)c1ccc(S(=O)(=O)N2CCCCC2)cc1", "Potency": "inconclusive [inhibitor, partial curve]"},
      {"compound": "COc1ccc(NC(=O)COC(=O)c2cc(OC)c(OC)cc2NC(=O)c2ccco2)cc1OC", "Potency": "inconclusive [inhibitor, single point]"},
      {"compound": "CCOC(=O)c1c(NC(=O)CSc2nnnn2-c2ccccc2)sc2c1CCC(C)C2", "note": "(stereo not drawn)", "Potency": "inactive"},
      {"compound": "COC(=O)c1c(N2C(=O)[C@H]3[C@@H](C2=O)[C@]2(C(=O)Nc4c2ccc(C)c4C)N2CCC[C@@H]32)sc(C)c1C", "Potency": "inconclusive [inhibitor, single point]"},
      {"compound": "Cc1nc2ccc(NC(=O)c3ccc(S(=O)(=O)N(C)c4ccccc4)cc3)cc2s1", "Potency": "inconclusive [inhibitor, single point]"},
      {"compound": "C/C(=N\\NC(=O)c1ccccc1[N+](=O)[O-])c1c(O)cc(C)oc1=O", "Potency": "inconclusive [inhibitor, single point]"},
      {"compound": "CC1CCN(CCC(=O)N/N=C/c2ccc([N+](=O)[O-])cc2)CC1", "Potency": "inactive"},
      {"compound": "Cc1ccc2nc(-c3cccc(NS(C)(=O)=O)c3)cc(-c3ccccc3)c2c1", "Potency": "inconclusive [inhibitor, single point]"},
      {"compound": "Cc1cccc(CN2CCCC(C(=O)N3CCc4ccccc4C3)C2)c1", "note": "(stereo not drawn)", "Potency": "inactive"},
      {"compound": "Cc1cc2c(ncn2C)c(NS(=O)(=O)c2ccccc2Cl)c1C", "Potency": "inactive"},
      {"compound": "NC(=O)C1(NC(=O)[C@@H]2CC3(CC(c4cccc(NC(=O)c5cc([N+](=O)[O-])cc([N+](=O)[O-])c5)c4)=NO3)CN2C(=O)c2ccccc2)CC1", "note": "(stereo partly drawn)", "Potency": "inconclusive [inhibitor, single point]"},
      {"compound": "CCCC(C(=O)NC1CCCC1)N(CCCN1CCOCC1)C(=O)c1snc(C(N)=O)c1N", "note": "(stereo not drawn)", "Potency": "inconclusive [inhibitor, single point]"},
      {"compound": "CCc1nc2ccccc2c(C(=O)OCC(=O)NCc2ccco2)c1C", "Potency": "inconclusive [inhibitor, partial curve]"},
      {"compound": "O=C(/C=C/c1ccc2c(c1)OCO2)Nc1nncs1", "Potency": "inconclusive [inhibitor, partial curve]"},
      {"compound": "C/C(=N\\NC(=O)CNc1ccccc1)c1ccccc1", "Potency": "inactive"},
      {"compound": "Cc1ccc(-n2nnc3c(=O)n(Cc4ccccn4)cnc32)cc1C", "Potency": "inactive"},
      {"compound": "O=C(Nc1cc(Cl)cc(Cl)c1)C(NCC1CCCO1)c1ccccc1", "note": "(stereo not drawn)", "Potency": "active: 4.47 µM"},
      {"compound": "CC1(C)OC(=O)C(=NNc2ccc(O)cc2)C(=O)O1", "Potency": "inactive"},
      {"compound": "O=C(O)c1cccc(N2C(=O)/C(=C/c3ccc([N+](=O)[O-])cc3)C=C2c2ccccc2)c1", "Potency": "active: 25.1 µM"},
      {"compound": "Cc1cc(N2CCOCC2)nc2ccc(Cc3ccc4nc(N5CCOCC5)cc(C)c4c3)cc12", "Potency": "inconclusive [inhibitor, partial curve]"},
      {"compound": "FC(F)(F)c1cccc(NC(=S)NNC(=S)NCc2ccccc2)c1", "Potency": "active: 0.562 µM"},
      {"compound": "O=C(CCCc1c[nH]c2ccccc12)Nc1ccc(S(=O)(=O)Nc2ncccn2)cc1", "Potency": "inactive"},
      {"compound": "CCc1ccc(NC(=O)c2ccc3c(c2)C(=O)N(CCOC)C3Nc2ccc(CC)cc2)cc1", "note": "(stereo not drawn)", "Potency": "inactive"},
      {"compound": "CC(C)C(OC(=O)c1cc2occc2n1C)C(=O)NCc1ccc2c(c1)OCO2", "note": "(stereo not drawn)", "Potency": "inconclusive [inhibitor, single point]"},
      {"compound": "N#Cc1c(N)n(CCOC(=O)c2ccc(Cl)cc2)c2nc3ccccc3nc12", "Potency": "inconclusive [inhibitor, partial curve]"},
      {"compound": "O=C(O)CS(=O)CC(=O)Nc1cccc(C(F)(F)F)c1", "note": "(stereo not drawn)", "Potency": "active: 1.78 µM"},
      {"compound": "CCNC(=O)c1ccccc1NC(=O)c1cccc(S(=O)(=O)N2CCOCC2)c1", "Potency": "inconclusive [inhibitor, single point]"},
      {"compound": "CC(NCc1ccc(F)cc1)C(=O)Nc1cc(S(=O)(=O)N2CCCCC2)ccc1Cl", "note": "(stereo not drawn)", "Potency": "inactive"},
      {"compound": "Cc1nc2[nH]c(=O)[nH]c(=O)c2[nH]1", "Potency": "inactive"},
      {"compound": "Nc1cc(Cl)ccc1C(=O)OCC(=O)NC1CCCCC1", "Potency": "inconclusive [inhibitor, single point]"},
      {"compound": "O=C1c2ccccc2-c2cccc(C(=O)N3CCN(C(=O)c4ccccc4)CC3)c21", "Potency": "inconclusive [inhibitor, partial curve, poor fit]"},
      {"compound": "O=C(CSc1ccccn1)N1CCc2ccccc21", "Potency": "inconclusive [inhibitor, partial curve]"},
      {"compound": "O=C1OCc2cc(NC(=O)C3CCCCC3)ccc21", "Potency": "inconclusive [inhibitor, single point]"},
      {"compound": "CC(=O)O[C@]1(C(C)=O)CC[C@H]2[C@@H]3C[C@H](C)C4=CC(=O)CC[C@]4(C)[C@H]3CC[C@@]21C", "Potency": "inactive and active: 31.6 µM"},
      {"compound": "C=CCN1C(=O)NC(c2ccccc2)(C(F)(F)F)S/C1=C(\\C#N)c1nnc(N2CCOCC2)n1-c1ccccc1", "note": "(stereo not drawn)", "Potency": "inconclusive [inhibitor, partial curve]"},
      {"compound": "CCNC(=O)/N=C1/NC(=O)C(C(C)C)O1", "note": "(stereo not drawn)", "Potency": "inactive"},
      {"compound": "COc1cc(NC(=O)c2ccc([N+](=O)[O-])cc2)ccc1NC(=O)C(C)C", "Potency": "inactive"},
      {"compound": "N[C@@H](Cc1ccccc1)C(=O)O", "Potency": "inactive"},
      {"compound": "O=C(c1cccn2c(=O)c3cc(Cl)ccc3nc12)N1CCOCC1", "Potency": "inconclusive [inhibitor, partial curve]"},
      {"compound": "N#CC1=C(N)c2ccccc2CC12CCCCC2", "Potency": "inconclusive [inhibitor, single point]"},
      {"compound": "CC1=NN(c2ccccc2)C(=O)[C@@H]1N=Nc1ccc(S(N)(=O)=O)cc1", "activity, negative = inhibition": "inactive: 12.6% [at 13.5 µM]"}
    ]}
  ]
}
